Among the data in PubChem BioAssay AID1745853 (National Center for Advancing Translational Sciences (NCATS), 2022) are activity change, negative = inhibition values, retold here.

This is one part of the list. Shown are side measurements of this screen, not its main read-out; they come without a call.

What all share (experiment): Primary Screen for Target Class Profiling of Small Molecule Inhibitors of Methyltransferases
Assay [1] deals with Glycine N-methyltransferase (Homo sapiens) (UniProt Q14749). Conditions: purified enzyme, MTase-Glo SAH luminescence; measured here: GNMT inhibition; at 40 µM; stronger effect = lower value. Put shortly:
(§1)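 Each enzyme was assayed with SAM and its substrate. SAH formation detected by MTase-Glo luminescence; single-point 40 uM screen[…].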

In assay [2] the target is Guanidinoacetate N-methyltransferase (Homo sapiens) (UniProt Q14353). To be noted: purified enzyme, MTase-Glo SAH luminescence; measured here: GAMT inhibition; at 40 µM; stronger effect = lower value. An outline of the steps:
as §1

Assay [3] concerns the target Histamine N-methyltransferase (Homo sapiens) (UniProt P50135). To be noted: purified enzyme, MTase-Glo SAH luminescence; measured here: HNMT inhibition; at 40 µM; stronger effect = lower value. Put shortly: as §1
Assay [4] addresses Nicotinamide N-methyltransferase (Homo sapiens) (UniProt P40261). To be noted: purified enzyme, MTase-Glo SAH luminescence; measured here: NNMT inhibition; at 40 µM; stronger effect = lower value. Put shortly: as §1
Assay [5] addresses Phenylethanolamine N-methyltransferase (Homo sapiens) (UniProt P11086). Conditions: purified enzyme, MTase-Glo SAH luminescence; measured here: PNMT inhibition; at 40 µM; stronger effect = lower value. Put shortly:
as §1
% is scaled to controls: 0 for no effect and ±100 for the full control effect.

Consider `CCOC(=O)c1cc2n(n1)CC(C)(C(=O)NCCCOC)N(c1ccc(C)c(Cl)c1)C2=O` (stereo not given), for which the activity change, negative = inhibition came to 5.88% in assay [1]; 0% in assay [2]; 11.2% in assay [3]; 5.46% in assay [4]; 5.9% in assay [5].

Consider `Nc1nc(Cl)nc2c1ncn2[C@@H]1O[C@H](CO)[C@@H](O)[C@H]1O`, for which the activity change, negative = inhibition in assay [1] was -6.86%; in assay [2], 0.413%; in assay [3], -4.02%; in assay [4] it was -9.54%; in assay [5], -0.604%.

For `COc1ccccc1CNC(=O)C1c2c(n(C)c3ccccc23)SCC(=O)N1c1cccc(F)c1` (stereo not given), the activity change, negative = inhibition in assay [1] is 10%; in assay [2], 5.53%; in assay [3], 2.56%; in assay [4], -3.48%; in assay [5], 5.63%.

`CCC(C)(C)C(=O)N1CCC(N2C(=O)CCC2C(=O)NC(C)C)CC1` (stereo not given): the activity change, negative = inhibition in assay [1] is -5.02%; in assay [2], -6.44%; in assay [3] it was -1.16%; in assay [4], -9.61%; in assay [5] it was 1.56%.

Take `Cc1noc(C)c1-c1cc(-c2cccc3cc[nH]c23)cn2cncc12`: the activity change, negative = inhibition in assay [1] was -21%; in assay [2], -13.9%; in assay [3], -17.9%; in assay [4], -30.2%; in assay [5], -4.26%.

For `COc1ccc(-n2c(SCC#N)nc3sc4c(c3c2=O)CCCC4)cc1`, the activity change, negative = inhibition is 7.13% in assay [1]; -2.15% in assay [2]; 9.45% in assay [3]; -16.9% in assay [4]; -3.48% in assay [5].

`Cc1oc(C(O)c2ccccc2)nc1C(=O)Nc1ccncc1` (stereo not given): the activity change, negative = inhibition in assay [1] is -4.75%; in assay [2], -2.5%; in assay [3] it was -4.21%; in assay [4] it was -4.38%; in assay [5], -5.41%.

`C/C=C(\C)C(=O)OC1C=C(C)CC(OC(=O)c2ccc(O)cc2)C2C1(C)CCC2(O)C(C)C` (stereo not given): the activity change, negative = inhibition in assay [1] was 3.99%; in assay [2] it was 5.45%; in assay [3], 0.865%; in assay [4] it was -14.6%; in assay [5] it was 2.61%.

In the case of `CN1C(=O)c2cc(C(=O)NCCc3cccs3)nn2CC1(C)C(=O)NC1CCCC1` (stereo not given), the activity change, negative = inhibition in assay [1] was -5.93%; in assay [2], -4.92%; in assay [3], -3.05%; in assay [4], -4.76%; in assay [5] it was -4.78%.

Regarding `CN(C)c1cc(N2CCCC(NS(C)(=O)=O)C2)ncn1` (stereo not given), the activity change, negative = inhibition in assay [1] was -4.04%; in assay [2], -9.69%; in assay [3], -3%; in assay [4] it was -11.9%; in assay [5], -6.68%.

With `O=c1[nH]c(C2CCN(Cc3ccc(-c4cccnc4)cc3)CC2)nc2ccc(F)cc12`, the activity change, negative = inhibition was -9.59% in assay [1]; 1.54% in assay [2]; -5.21% in assay [3]; 0.158% in assay [4]; -2.78% in assay [5].

Regarding `O=C1OC(=O)C2C3CCC(O3)C12` (stereo not given), the activity change, negative = inhibition is 1.52% in assay [1]; 12.6% in assay [2]; 6.19% in assay [3]; -1.71% in assay [4]; 3.96% in assay [5].

On to `NC(=O)[C@H]1CCCCc2c1[nH]c1ccc(Cl)cc21`, for which the activity change, negative = inhibition in assay [1] was 6.38%; in assay [2], 6.06%; in assay [3], 7.92%; in assay [4], -4.11%; in assay [5], 6.37%.

Regarding `COC(=O)c1cc2n(n1)CC(C)(C(=O)NC1CCCCCC1)N(c1ccc(C)c(C)c1)C2=O` (stereo not given), the activity change, negative = inhibition in assay [1] is 1.19%; in assay [2] it was 0%; in assay [3], -0.793%; in assay [4], 5.86%; in assay [5] it was 3.68%.

With `O=C1c2cc3occc3n2CC(C(=O)NC2CCCCCCC2)(c2ccccc2)N1Cc1ccccc1` (stereo not given), the activity change, negative = inhibition in assay [1] is 5.75%; in assay [2], 4.4%; in assay [3], 4.32%; in assay [4] it was -1.12%; in assay [5], -17.8%.

As to `NC(=O)c1ccc(C(F)(F)F)nc1N1CCC(N2CCCC(O)C2)CC1` (stereo not given), the activity change, negative = inhibition is 0.106% in assay [1]; 0.551% in assay [2]; 0.874% in assay [3]; -1.67% in assay [4]; 0.703% in assay [5].

`CCc1ccccc1NC(=O)Cn1nc2n(C(C)C)c(=O)c3ccc(C(=O)NC4CCCC4)cc3n2c1=O`: the activity change, negative = inhibition is 0.895% in assay [1]; 2.28% in assay [2]; -4.32% in assay [3]; -0.712% in assay [4]; -5.61% in assay [5].

For `COC(=O)C(C)(N)Cc1ccc(O)cc1` (stereo not given), the activity change, negative = inhibition in assay [1] is -0.261%; in assay [2], 4.6%; in assay [3], 2.1%; in assay [4], -3.23%; in assay [5] it was 6.72%.

Turning to `Cc1ccc(NC(=O)Cn2nc3n(C)c(=O)c4ccc(C(=O)NCC(C)C)cc4n3c2=O)cc1`, the activity change, negative = inhibition is 5.81% in assay [1]; 4.69% in assay [2]; 9.95% in assay [3]; 3.17% in assay [4]; 6.64% in assay [5].

For the compound `Cc1sc2ncn(CC(=O)NCc3cccs3)c(=O)c2c1S(=O)(=O)N1CCC(C)CC1`, the activity change, negative = inhibition was -10.1% in assay [1]; 3.22% in assay [2]; -3.09% in assay [3]; -3.06% in assay [4]; -10% in assay [5].

As for `CCC(C)NC(=O)c1ccc2c(=O)n(Cc3ccccc3)c3nn(Cc4ccc(F)cc4)c(=O)n3c2c1` (stereo not given), the activity change, negative = inhibition in assay [1] was 8.28%; in assay [2], 0%; in assay [3] it was 3.5%; in assay [4], 7.72%; in assay [5], 6.65%.

For `CC1OC(OC2C(OC3C(O[C@H]4CC[C@@]5(C)C(CC[C@]6(C)C5CC=C5C7CC(C)(C)CC(O)[C@]7(C)CC[C@]56C)C4(C)C)OC(C(=O)O)C(O)C3O)OCC(O)C2O)C(O)C(O)C1O` (stereo not given in full), the activity change, negative = inhibition was 2.18% in assay [1]; 10.2% in assay [2]; 10.6% in assay [3]; -12.8% in assay [4]; 7.58% in assay [5].

`COc1ccc(CNC(=O)Cn2c(=O)oc3cc(S(=O)(=O)N4CCC(C)CC4)ccc32)cc1`: the activity change, negative = inhibition in assay [1] was -9.77%; in assay [2], 3.55%; in assay [3] it was -2.71%; in assay [4] it was -22.4%; in assay [5], -11.5%.

For `Cc1ccc(NC(=O)Cn2nc3n(C)c(=O)c4ccc(C(=O)NC5CCCC5)cc4n3c2=O)c(C)c1`, the activity change, negative = inhibition in assay [1] turned out to be 4.74%; in assay [2], 0%; in assay [3], 4.6%; in assay [4], 4.39%; in assay [5], 3.78%.

As for `CC(C)c1noc(-c2cn(C3CCN(C(=O)C4(c5ccccc5)CC4)CC3)nn2)n1`, the activity change, negative = inhibition is -1.01% in assay [1]; 0.712% in assay [2]; 0.806% in assay [3]; 0.768% in assay [4]; -0.546% in assay [5].

Consider `COc1ccccc1NS(=O)(=O)c1ccc2c(c1)NC(=O)C(C)C(=O)N2` (stereo not given), for which the activity change, negative = inhibition in assay [1] was -6.11%; in assay [2], 0.914%; in assay [3], -6.13%; in assay [4] it was 0.958%; in assay [5], -6.58%.

`COc1cccc(CNC(=O)c2ccc3c(=O)nc4c(-c5cccc(F)c5)n[nH]n4c3c2)c1`: the activity change, negative = inhibition in assay [1] was -7.52%; in assay [2] it was 0%; in assay [3], -1.09%; in assay [4], -2.12%; in assay [5], -3.09%.

Turning to `COc1cc(N2CCC(N)CC2)ccc1Nc1ncc(Cl)c(-c2c[nH]c3ccccc23)n1`, the activity change, negative = inhibition is -25.4% in assay [1]; -5.79% in assay [2]; -74.5% in assay [3]; -42.2% in assay [4]; -21.7% in assay [5].

On to `Cc1oc2ccccc2c1CNC(=O)NCc1cccs1`, for which the activity change, negative = inhibition in assay [1] was -1.71%; in assay [2], -12.5%; in assay [3] it was -2.33%; in assay [4], -29.9%; in assay [5], -7.78%.

`CCOC(=O)Cc1c(-c2ccccc2)c2cc(Cl)ccc2[nH]c1=O`: the activity change, negative = inhibition in assay [1] is -2.03%; in assay [2] it was -0.143%; in assay [3], 0.969%; in assay [4], -15.5%; in assay [5] it was -1.28%.
